# Reference: patent US20170290876A1 (Novartis, published 2017)
# T1: human VEGF (human, UniProt P15692 207-395, biotinylated (site not stated))
# T1 construct: Biotinylated human VEGF generated internally; also called hVEGF; hVEGF-biotin
# T1 sequence: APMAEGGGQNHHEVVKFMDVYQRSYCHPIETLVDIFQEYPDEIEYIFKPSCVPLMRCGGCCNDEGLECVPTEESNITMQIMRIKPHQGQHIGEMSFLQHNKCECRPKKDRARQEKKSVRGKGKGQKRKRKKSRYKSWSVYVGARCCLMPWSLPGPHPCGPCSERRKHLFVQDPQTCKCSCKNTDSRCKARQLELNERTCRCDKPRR
# B1: NVS84T (designed binder)
# chain: SDLGKKLLEAARAGQDDEVRILMANGADVNTADSTGWTPLHLAVPWGHLEIVEVLLKYGADVNAKDFQGWTPLHLAAAIGHQEIVEVLLKNGADVNAQDKFGKTAFDISIDNGNEDLAEILQKAAGSGGG[sequence of about 100 residues not given]SGGHHHHHH
# notes: Anti-VEGF DARPin with HA tag at the C-terminus
# B2: NVS83T (scFv)
# scFv: MEIVMTQSPSTLSASVGDRVIITCQASEIIHSWLAWYQQKPGKAPKLLIYLASTLASGVPSRFSGSGSGAEFTLTISSLQPDDFATYYCQNVYLASTNGANFGQGTKLTVLGGGGGGSGGGGSGGGGSSGGGSEVQLVESGGGLVQPGGSLRLSCTASGFSLTDYYYMTWVRQAPGKGLEWVGFIDPDDDPYYATWAKGRFTISRDNSKNTLYLQMNSLRAEDTAVYYCAGGDHNSGWGLDIWGQGTLVTVSSGSGGG[sequence of about 100 residues not given]
# notes: scFv of NVS4 with HA tag at the C-terminus
# B3: NVS1f (Fab)
# heavy: EVQLVESGGGLVQPGGSLRLSCTASGFSLTDYYYMTWVRQAPGKGLEWVGFIDPDDDPYYATWAKGRFTISRDNSKNTLYLQMNSLRAEDTAVYYCAGGDHNSGWGLDIWGQGTLVTVSSASTKGPSVFPLAPSSKSTSGGTAALGCLVKDYFPEPVTVSWNSGALTSGVHTFPAVLQSSGLYSLSSVVTVPSSSLGTQTYICNVNHKPSNTKVDKRVEPKSCGSGGG[sequence of about 100 residues not given]
# light: [sequence of about 100 residues not given]GGGSEIVMTQSPSTLSASVGDRVIITCQASEIIHSWLAWYQQKPGKAPKLLIYLASTLASGVPSRFSGSGSGAEFTLTISSLQPDDFATYYCQNVYLASTNGANFGQGTKLTVLKRTVAAPSVFIFPPSDEQLKSGTASVVCLLNNFYPREAKVQWKVDNALQSGNSQESVTEQDSKDSTYSLSSTLTLSKADYEKHKVYACEVTHQGLSSPVTKSFNRGEC
# notes: NVS4 with one HA tag at heavy chain C-terminus and one at light chain N-terminus
# B4: NVS1d (Fab)
# heavy: EVQLVESGGGLVQPGGSLRLSCTASGFSLTDYYYMTWVRQAPGKGLEWVGFIDPDDDPYYATWAKGRFTISRDNSKNTLYLQMNSLRAEDTAVYYCAGGDHNSGWGLDIWGQGTLVTVSSASTKGPSVFPLAPSSKSTSGGTAALGCLVKDYFPEPVTVSWNSGALTSGVHTFPAVLQSSGLYSLSSVVTVPSSSLGTQTYICNVNHKPSNTKVDKRVEPKSCGSGGG[sequence of about 100 residues not given]
# light: EIVMTQSPSTLSASVGDRVIITCQASEIIHSWLAWYQQKPGKAPKLLIYLASTLASGVPSRFSGSGSGAEFTLTISSLQPDDFATYYCQNVYLASTNGANFGQGTKLTVLKRTVAAPSVFIFPPSDEQLKSGTASVVCLLNNFYPREAKVQWKVDNALQSGNSQESVTEQDSKDSTYSLSSTLTLSKADYEKHKVYACEVTHQGLSSPVTKSFNRGECGSGGG[sequence of about 100 residues not given]
# notes: NVS4 with HA tags at the C-terminus of both chains
# B5: NVS1c (Fab)
# heavy: [sequence of about 100 residues not given]GGGSEVQLVESGGGLVQPGGSLRLSCTASGFSLTDYYYMTWVRQAPGKGLEWVGFIDPDDDPYYATWAKGRFTISRDNSKNTLYLQMNSLRAEDTAVYYCAGGDHNSGWGLDIWGQGTLVTVSSASTKGPSVFPLAPSSKSTSGGTAALGCLVKDYFPEPVTVSWNSGALTSGVHTFPAVLQSSGLYSLSSVVTVPSSSLGTQTYICNVNHKPSNTKVDKRVEPKSCGS
# light: [sequence of about 100 residues not given]GGGSEIVMTQSPSTLSASVGDRVIITCQASEIIHSWLAWYQQKPGKAPKLLIYLASTLASGVPSRFSGSGSGAEFTLTISSLQPDDFATYYCQNVYLASTNGANFGQGTKLTVLKRTVAAPSVFIFPPSDEQLKSGTASVVCLLNNFYPREAKVQWKVDNALQSGNSQESVTEQDSKDSTYSLSSTLTLSKADYEKHKVYACEVTHQGLSSPVTKSFNRGEC
# notes: NVS4 with HA tags at the N-terminus of both chains
# B6: NVS85T (designed binder)
# chain: SDLGKKLLEAARAGQDDEVRILMANGADVNAFDWMGWTPLHLAAHEGHLEIVEVLLKNGADVNATDVSGYTPLHLAAADGHLEIVEVLLKYGADVNTKDNTGWTPLHLSADLGRLEIVEVLLKYGADVNAQDKFGKTAFDISIDNGNEDLAEILQKAAGSGGG[sequence of about 100 residues not given]SGGHHHHHH
# notes: as for B1
# B7: NVS80T (Fc fusion)
# chain: SDTGRPFVEMYSEIPEIIHMTEGRELVIPCRVTSPNITVTLKKFPLDTLIPDGKRIIWDSRKGFIISNATYKEIGLLTCEATVNGHLYKTNYLTHRQTNTIIDVVLSPSHGIELSVGEKLVLNCTARTELNVGIDFNWEYPSSKHQHKKLVNRDLKTQSGSEMKKFLSTLTIDGVTRSDQGLYTCAASSGLMTKKNSTFVRVHEK[sequence of human IgG1 Fc with changes not given]GSGGGGVYHREAISGKYYLTYAEAKAVCEFEGGHLATYKQLEAAQQIGFHVCAAGWMAKGRVGYPIVKPGPNCGFGKTGIIDYGIRLQRSERWDAYCYNPHA
# notes: VEGF Fc trap with HA tag at the C-terminus
# B8: NVS82T (antibody, human IgG1, kappa)
# heavy: EVQLVESGGGLVQPGGSLRLSCTASGFSLTDYYYMTWVRQAPGKGLEWVGFIDPDDDPYYATWAKGRFTISRDNSKNTLYLQMNSLRAEDTAVYYCAGGDHNSGWGLDIWGQGTLVTVSSASTKGPSVFPLAPSSKSTSGGTAALGCLVKDYFPEPVTVSWNSGALTSGVHTFPAVLQSSGLYSLSSVVTVPSSSLGTQTYICNVNHKPSNTKVDKRV[sequence of human IgG1 Fc with changes not given]
# light: EIVMTQSPSTLSASVGDRVIITCQASEIIHSWLAWYQQKPGKAPKLLIYLASTLASGVPSRFSGSGSGAEFTLTISSLQPDDFATYYCQNVYLASTNGANFGQGTKLTVLKRTVAAPSVFIFPPSDEQLKSGTASVVCLLNNFYPREAKVQWKVDNALQSGNSQESVTEQDSKDSTYSLSSTLTLSKADYEKHKVYACEVTHQGLSSPVTKSFNRGECGSGGG[sequence of about 100 residues not given]
# notes: IgG of NVS4 with HA tag at light chain C-terminus
# B9: NVS80 (Fc fusion)
# chain: SDTGRPFVEMYSEIPEIIHMTEGRELVIPCRVTSPNITVTLKKFPLDTLIPDGKRIIWDSRKGFIISNATYKEIGLLTCEATVNGHLYKTNYLTHRQTNTIIDVVLSPSHGIELSVGEKLVLNCTARTELNVGIDFNWEYPSSKHQHKKLVNRDLKTQSGSEMKKFLSTLTIDGVTRSDQGLYTCAASSGLMTKKNSTFVRVHEK[sequence of human IgG1 Fc with changes not given]
# notes: Untagged VEGF Fc trap
# Biological target: T1, human VEGF
# Assay: Biacore SPR; affinity of NVS84T against untagged NVS84
row,Fold improvement,Binder
1,5.2 fold,B1

# Biological target: T1, human VEGF
# Assay: Biacore SPR, hVEGF-biotin, 25 C
Kd,koff,kon,Binder
1.05 pM,8.49e-05 s⁻¹,8.12e+07 M⁻¹ s⁻¹,B2
4.95 pM,2.79e-05 s⁻¹,5.63e+06 M⁻¹ s⁻¹,B3
1.39 pM,2.36e-05 s⁻¹,1.7e+07 M⁻¹ s⁻¹,B4
13.3 pM,2.83e-05 s⁻¹,2.13e+06 M⁻¹ s⁻¹,B5
79.5 pM,0.00126 s⁻¹,1.59e+07 M⁻¹ s⁻¹,B1
9.37 pM,0.00011 s⁻¹,1.18e+07 M⁻¹ s⁻¹,B6

# Biological target: T1, human VEGF
# Assay: Biacore SPR; affinity of NVS80T against untagged NVS80
row,Fold improvement,Binder
1,131 fold,B7

# Biological target: T1, human VEGF
# Assay: Biacore SPR, Hu VEGF-biotin, 25 C
Kd,koff,kon,Binder
1.05 pM,8.49e-05 s⁻¹,8.12e+07 M⁻¹ s⁻¹,B2
79.5 pM,0.00126 s⁻¹,1.59e+07 M⁻¹ s⁻¹,B1

# Biological target: T1, human VEGF
# Assay: Biacore SPR, hVEGF-biotin, 37 C
Kd,koff,kon,Binder
0.335 pM,9.06e-05 s⁻¹,2.71e+08 M⁻¹ s⁻¹,B7
0.375 pM,3.19e-05 s⁻¹,8.52e+07 M⁻¹ s⁻¹,B8
4.64 pM,2.43e-05 s⁻¹,5.23e+06 M⁻¹ s⁻¹,B3
2.63 pM,2.58e-05 s⁻¹,9.78e+06 M⁻¹ s⁻¹,B4
13.9 pM,2.81e-05 s⁻¹,2.03e+06 M⁻¹ s⁻¹,B5

# Biological target: T1, human VEGF
# Assay: Biacore SPR, Hu VEGF-biotin, 37 C
Kd,koff,kon,Binder
44 pM,0.000115 s⁻¹,2.62e+06 M⁻¹ s⁻¹,B9
0.335 pM,9.06e-05 s⁻¹,2.71e+08 M⁻¹ s⁻¹,B7
0.375 pM,3.19e-05 s⁻¹,8.52e+07 M⁻¹ s⁻¹,B8

# Biological target: T1, human VEGF
# Assay: Biacore SPR; affinity of NVS83T against untagged NVS83
row,Fold improvement,Binder
1,6.4 fold,B2

# Biological target: T1, human VEGF
# Assay: Biacore SPR; affinity of NVS82T against untagged NVS82
row,Fold improvement,Binder
1,20.3 fold,B8
